Patent US20160289298A1 (ACCELERON PHARMA, published 2016)

How the values were obtained:
[1] = target: T1, BMP5 (UniProt P22003 317-454, limits assumed); assay: Biacore; receptor-Fc captured with anti-Fc antibody, ligand injected; ligands ranked by off-rate
T1 sequence (looked up): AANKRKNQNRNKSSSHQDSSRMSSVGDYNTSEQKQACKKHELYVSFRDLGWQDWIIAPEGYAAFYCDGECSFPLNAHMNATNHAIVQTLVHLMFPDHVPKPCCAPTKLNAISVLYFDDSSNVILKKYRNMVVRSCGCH
Protocol: Ligands were injected and allowed to flow over the captured receptor protein.

[2] = target: T2, activin A (UniProt P08476 311-426); assay: SPR (Biacore), receptor-Fc captured by anti-Fc antibody, ligand injected
T2 sequence (looked up): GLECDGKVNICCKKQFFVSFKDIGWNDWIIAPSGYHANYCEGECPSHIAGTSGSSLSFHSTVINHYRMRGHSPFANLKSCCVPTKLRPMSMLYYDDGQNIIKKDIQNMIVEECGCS

[3] = target: T3, activin B (UniProt P09529 293-407); assay: as above
T3 sequence (looked up): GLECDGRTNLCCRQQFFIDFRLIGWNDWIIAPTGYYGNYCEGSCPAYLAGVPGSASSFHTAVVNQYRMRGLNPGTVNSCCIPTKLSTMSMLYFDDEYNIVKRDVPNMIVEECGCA

Measured: binding result

B1: ActRIIA-Fc homodimeric complex (Fc fusion)
chain: not shown
notes: also called homodimeric ActRIIA-Fc; not shown: linker and Fc portion of the homodimer
binds: [1] | [2] | [3]
